Measurements: PMC6919601, “Identification of Plasmodium dipeptidyl aminopeptidase allosteric inhibitors by high throughput screening” (PLoS ONE, 2019)
Out of some 110,000 compounds screened, about 230 (0.21%) showed an effect of 50% or more. The list shows a part of the results.

These molecules were tested against DPAP1 (Plasmodium falciparum, UniProt Q8IIJ9) (assay: primary screen, percent inhibition; read by cleavage of a fluorogenic dipeptide substrate; higher = more effect of the substance).
DPAP1, sequence (Q8IIJ9 whole entry, looked up): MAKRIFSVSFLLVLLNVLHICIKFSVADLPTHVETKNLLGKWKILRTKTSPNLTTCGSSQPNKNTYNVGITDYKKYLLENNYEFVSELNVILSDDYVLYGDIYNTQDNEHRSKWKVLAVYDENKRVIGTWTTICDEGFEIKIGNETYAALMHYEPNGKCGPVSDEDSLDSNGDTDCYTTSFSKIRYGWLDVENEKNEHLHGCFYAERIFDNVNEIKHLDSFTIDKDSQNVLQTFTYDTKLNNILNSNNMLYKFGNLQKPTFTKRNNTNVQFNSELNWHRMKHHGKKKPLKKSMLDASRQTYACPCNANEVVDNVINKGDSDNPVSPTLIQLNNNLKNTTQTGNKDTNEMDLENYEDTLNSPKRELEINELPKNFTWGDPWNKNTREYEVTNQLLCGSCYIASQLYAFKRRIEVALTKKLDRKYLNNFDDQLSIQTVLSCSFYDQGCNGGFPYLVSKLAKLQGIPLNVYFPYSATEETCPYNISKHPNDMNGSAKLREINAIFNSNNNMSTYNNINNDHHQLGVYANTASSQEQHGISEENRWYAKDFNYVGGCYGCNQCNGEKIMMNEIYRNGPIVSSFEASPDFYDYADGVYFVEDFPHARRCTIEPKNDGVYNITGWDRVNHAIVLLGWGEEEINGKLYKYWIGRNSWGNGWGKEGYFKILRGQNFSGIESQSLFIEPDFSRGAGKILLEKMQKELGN
Set-up: species or system P. falciparum D10 trophozoite lysates; single well
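Note: 30 min substrate incubation versus DMSO and 10 µM JCP410 controls.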

Structure (SMILES)	% Inhibition @ 10 uM [%]
COc1cc(C(=O)NCCC(=O)N2CCCCC2)cc(OC)c1OC	-7.57
O=C(C(Cc1ccccc1)N1Cc2ccccc2C1=O)N1CC=C(c2ccccc2)CC1 (stereo not shown)	0.0322
COc1cc(OC)c(C(=O)N(Cc2nc(-c3ccc(Cl)cc3)no2)C(C)C)cc1OC	-8.9
CN1CCCN(C2CCN(CCc3ccccc3)CC2)CC1	-1.81
O=C(c1ccco1)N1CCN(C(=O)c2c[nH]nc2C2CCNCC2)CC1	0.713
COc1ccc(S(=O)(=O)NCCO)cc1C(=O)O	13.3
CCCOc1ccc(C(=O)Nc2ccc(Br)cn2)cc1	7.62
COc1ccc2c(C)cc(N3CCCCCC3)nc2c1	0.634
Cc1ccc(Nc2cccc3nonc23)cc1	-0.988
NC(=O)c1c(NC(=O)c2cc(Br)ccc2Cl)sc2c1CCCC2	1.64
CC(c1ccccc1)N1CSC2=C(C#N)C(c3cccs3)CC(=O)N2C1 (stereo not shown)	68
CC(C)C[C@H](NC(=O)c1cccc(OCCCc2cccnc2)c1)C(=O)NCC#N	-9.15
CNS(=O)(=O)c1cn(CC(=O)NC2CCCc3ccccc32)cc1S(=O)(=O)NC (stereo not shown)	-9.5
COc1ccc(-c2cc(-c3ccccc3)nc(OC(C)C)n2)cc1	-6.08
CCCNC(=O)Cc1ccc(-n2c(-c3ccccc3)nc3cccnc32)cc1	-2.56
Cc1ccc(OCCn2c(C)nc3ccccc32)cc1	6.2
CC(=O)Nc1ccc(S(=O)(=O)NCc2ccc(C)cc2)cc1	-3.25
Oc1ccccc1-c1cc(-c2ccc(Cl)cc2)[nH]n1	1.83
CN1CCN(C(=O)c2cn(C3CCCCC3)c(=O)c3c2c2ccccc2n3C)CC1	5.06
O=C(CN1C(=O)CSc2ncccc21)N1CCC2(CC1)OCCO2	-0.637
CN(C)c1ccc(C2Nc3ccccc3N=C3CC(C)(C)CC(O)=C32)cc1 (stereo not shown)	4.39
COCc1cc(O)n2nc(C)c(-c3ccc(OC)cc3)c2n1	1.72
COc1ccc(S(=O)Cc2ccc(C(=O)N3CCN(C(=O)c4ccco4)CC3)o2)cc1 (stereo not shown)	2.03
CCOC(=O)C1=C(CN2CCCC(c3ccccc3)C2)NC(=O)NC1c1cccc(OC)c1OC (stereo not shown)	3.75
COc1ccc(OC)c(CN2CCC(Cc3ccccc3)CC2)c1	-0.192
Cc1cc(C)c2c(n1)SCC(=O)N2CC(=O)NCc1cccnc1	-2.37
CC(=O)N1c2ccccc2N=C2CC(C)(C)CC(O)=C2C1c1cccs1 (stereo not shown)	5.24
CC1=C(C#N)C(c2ccc(Cl)cc2)C2=C(O)CC(c3ccccc3)CC2=N1 (stereo not shown)	-3.9
